Assay results as given in the supplement of paper PMC4604168 (melanoma cell lines).
Some of the results follow. Repeats are few or missing, and single values can be far off.
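Also: cells treated in 1,536-well plates, then fixed and DAPI-stained, with nuclei counted from automated high-throughput microscope images.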

These compounds were tested on A375 (assay: cell count relative to DMSO control; melanoma cells; higher = more viable cells). Conditions: library dose: standard library concentration; 72 h.
C[C@]1(O)C[C@@H](c2nc(-c3ccc4ccc(-c5ccccc5)nc4c3)c3c(N)nccn32)C1 + Cc1cc(Nc2cc(N3CCN(C)CC3)nc(/C=C/c3ccccc3)n2)n[nH]1 [ENMD2076] (first compound 2 µM, partner dose 0.2 µM) was tested, and the cell count was 88%.
With COc1cc([C@@H]2c3cc4c(cc3[C@@H](O[C@@H]3O[C@@H]5CO[C@@H](C)O[C@H]5[C@H](O)[C@H]3O)[C@H]3COC(=O)[C@H]23)OCO4)cc(OC)c1O [etoposide] + O=C(Nc1cc(C(F)(F)F)cc(C(F)(F)F)c1)c1cc(Cl)ccc1O [IMD0354] (first compound 0.1 µM, partner dose 0.08 µM) the cell count was 77.3%.
Cn1cnc2c(F)c(Nc3ccc(Br)cc3Cl)c(C(=O)NOCCO)cc21 [selumetinib] + Nc1ccn([C@@H]2O[C@H](CO)[C@@H](O)C2(F)F)c(=O)n1 [gemcitabine] (first compound 0.075 µM, partner dose 0.002 µM) gave a cell count of 94.7%.
COc1cc([C@@H]2c3cc4c(cc3[C@@H](O[C@@H]3O[C@@H]5CO[C@@H](C)O[C@H]5[C@H](O)[C@H]3O)[C@H]3COC(=O)[C@H]23)OCO4)cc(OC)c1O [etoposide] + NC(=O)Nc1cc(-c2cccc(F)c2)sc1C(=O)N[C@H]1CCCNC1 [AZD7762] (first compound 0.1 µM, partner dose 0.1 µM) was tested, and the cell count was 47.1%.
In the case of CCN(CC)CCNC(=O)c1c(C)[nH]c(/C=C2\C(=O)Nc3ccc(F)cc32)c1C [sunitinib] + COc1cc2c(Oc3ccc4[nH]c(C)cc4c3F)ncnc2cc1OCCCN1CCCC1 [cediranib] (first compound 2 µM, partner dose 2 µM), the cell count is reported as 80.5%.
C[C@]1(O)C[C@@H](c2nc(-c3ccc4ccc(-c5ccccc5)nc4c3)c3c(N)nccn32)C1 + Cn1cncc1[C@@](N)(c1ccc(Cl)cc1)c1ccc2c(c1)c(-c1cccc(Cl)c1)cc(=O)n2C [tipifarnib] (first compound 2 µM, partner dose 0.05 µM) was tested, and the cell count was 72.3%.
COc1cc([C@@H]2c3cc4c(cc3[C@@H](O[C@@H]3O[C@@H]5CO[C@@H](C)O[C@H]5[C@H](O)[C@H]3O)[C@H]3COC(=O)[C@H]23)OCO4)cc(OC)c1O [etoposide] + CNC(=O)c1cc(Oc2ccc(NC(=O)Nc3ccc(Cl)c(C(F)(F)F)c3)cc2)ccn1 [sorafenib] (first compound 0.1 µM, partner dose 2 µM) gave a cell count of 91.9%.
In the case of C[C@]1(O)C[C@@H](c2nc(-c3ccc4ccc(-c5ccccc5)nc4c3)c3c(N)nccn32)C1 + CN(NC(=O)CC(=O)NN(C)C(=S)c1ccccc1)C(=S)c1ccccc1 [STA4783] (first compound 2 µM, partner dose 0.03 µM), the cell count is reported as 90.1%.
With COc1cc([C@@H]2c3cc4c(cc3[C@@H](O[C@@H]3O[C@@H]5CO[C@@H](C)O[C@H]5[C@H](O)[C@H]3O)[C@H]3COC(=O)[C@H]23)OCO4)cc(OC)c1O [etoposide] + CCCCCCCCCCCCCCCCCCOP(=O)([O-])OC1CC[N+](C)(C)CC1 [Perifosine] (first compound 0.1 µM, partner dose 2 µM) the cell count was 79.6%.
